In PubChem BioAssay AID588689 (Southern Research Specialized Biocontainment Screening …, 2011):
The list shows a part of the results. These are further read-outs of the screen, such as a control signal, another cell line or another target. No call is given for them.

Target: Genome polyprotein (Dengue virus type 2 (strain 16681-PDK53)) (UniProt P29991)
Experiment: Dengue-2 NS5 methyltransferase inhibitors, primary screen, biochemical, confirmation dose response (AID 588689)
Details: Dengue-2 NS5 methyltransferase capping enzyme assay, measured here: pilot screen replicate inhibition, at 25 µM, stronger effect = higher value

Compound | inhibition
Cc1ccc(S(=O)(=O)N2[C@@H](c3ccc(Br)cc3)C(C(=O)O)=C[C@H]2CC2CCCC2)cc1 | 7.95%
Cc1ccc(S(=O)(=O)N2[C@@H](c3ccc(Br)cc3)C(C(=O)O)=CC[C@H]2c2ccc(C(C)C)cc2)cc1 | 9.46%
O=C1C(Cl)=C(N2CCCCC2)C(=O)C(Cl)=C1c1cnc(N2CCCCC2)s1 | 62.1%
CCOc1ccc2nc(N3CCCN(C(=O)Nc4ccccc4C)CC3)c(C#N)cc2c1 | 16.1%
COc1cc([N+](=O)[O-])ccc1-c1ccc(/C=N\n2cnnc2)o1 | 11.9%
COc1cc2c3c(c1)-c1c(sn(-c4cc(OC)ccc4OC)c1=S)C(C)(C)N3C(=O)C2=O | 3.64%
CCOC(=O)CSc1nc2cc(OCC)ccc2cc1C#N | 5.78%
CCOc1cc(C(=O)Nc2ccc3c4c(cccc24)C(=O)N3CC)cc(OCC)c1OCC | 11.5%
COC(=O)C1=CN(c2cccc(C)c2)C=C(C(=O)OC)C1c1cc(OC)c(O)c([N+](=O)[O-])c1 | 5.94%
CN1CCN(C2=C(Cl)C(=O)C(c3cnc(N4CCCCC4)s3)=C(Cl)C2=O)CC1 | 75.1%
Cc1ccc(S(=O)(=O)C(C#N)c2nc3ccccc3nc2N2CC(C)OC(C)C2)cc1C (stereo not given) | 26.6%
O=C(O)CCn1c2c(c3ccccc31)CCCC2 | -2.43%
CCn1c(O)c(/C=N/N=C/c2ccccc2)c2ccc(C3=NNC(=O)CC3)cc21 | 33.4%
COc1cc(C2C(C#N)=C(N)Oc3c2ccc2ccccc32)ccc1OCC(=O)Nc1ccccc1C (stereo not given) | 5.63%
CCOC(=O)C1C(=O)NC(SCC(N)=O)=C(C#N)C1c1ccccc1OCC (stereo not given) | 33.4%
Cc1ccsc1C=Nc1ccc(O)cc1 | 5.46%
CCN=c1scc(C)n1/N=C/c1ccc(O)c(O)c1O | 66.6%
O=C(O)CN1C(=O)/C(=C\c2cccc(OCc3ccccc3)c2)SC1=S | 11.6%
N=c1n(CCN2CCCC2)c2ccccc2n1CC(O)c1ccco1 (stereo not given) | 17.3%
COc1ccc(/C=c2\sc3nc(-c4ccccc4OC)nn3c2=O)c(OC)c1 | 14%
C=CCc1cccc(/C=N/n2cnnc2)c1O | 7.25%
CCN(CC)c1nc2ccccc2nc1C(C#N)C(=O)NCCc1ccccc1 (stereo not given) | 34.3%
Cc1cc(SCC(=O)N/N=C/c2ccc(O)c(O)c2O)c(C)cc1Br | 71.8%
CCc1c(C)[nH]n(-c2ccc(Oc3ccccc3)c(S(=O)(=O)O)c2)c1=O | 20.6%
O=C(O)c1ccc(-n2nc(C(F)(F)F)c3c2-c2ccoc2CC3)cc1 | -4.87%

Compound | inhibition
CC1=CC2=C(OC1N(C)C)c1cccc3cccc(c13)C2=O (stereo not given) | 23.6%
COc1ccc(N=c2oc3c(OC)cccc3cc2C(=O)NCc2ccco2)c(OC)c1 | 4.24%
O=C(O)CC1S/C(=N/N=C/c2ccc(-c3ccccc3[N+](=O)[O-])o2)NC1=O (stereo not given) | 22.4%
O=C1NC(=O)/C(=C/c2ccc(-c3cc(C(=O)O)ccc3Cl)o2)S1 | 36.3%
O=[n+]1c2c(n([O-])c3cc(F)c(N4CCCC4)cc31)CCC2 | 33.4%
CCOc1ccc(N(C)c2ccc(/C=C3/SC(=S)NC3=O)cc2)cc1 | 29.5%
O=C(O)/C=C/C(=O)c1c(-c2ccccc2)[nH]c2ccccc12 | -3.62%
CCOc1ccc(C(c2c(O)nc(SC)n(C)c2=O)c2c(O)nc(SC)n(C)c2=O)cc1 | 14.3%
O=Cc1ccc(Sc2nnc(-c3ccccc3)o2)c([N+](=O)[O-])c1 | 4.72%
Nc1nonc1C(=O)NCCN=Cc1cc(Cc2ccccc2)cc(Br)c1O | 9.71%
COc1ccccc1Nc1nc2ccc(C)cc2cc1C#N | 3.35%
Cn1c2ccccc2c(=O)c2ccc(NCc3ccc4c(c3)OCO4)cc21 | 14%
CCOc1c(Cl)cc(C(=O)Nc2ccccc2C(=O)O)cc1Cl | 25.5%
CCCCCCc1cc2cc(-c3nnc(-c4ccccc4OC)o3)c(=O)oc2cc1O | 33.9%
CC(=O)N1C(=O)C(=C2C=C(C)OC(C)=C2)c2ccccc21 | 33.9%
CCCCCCOC(=O)C(C#N)c1nc2ccccc2nc1N1CCOCC1 (stereo not given) | 18.5%
CC1(C)CCN2CCC(C)(C)c3c(O)ccc1c32 | 29.5%
O=C(Nc1ccc(-c2nc3ccccc3o2)c(O)c1)c1cc(-n2cnnc2)ccc1Cl | -3.35%
CCc1ccc([C@@H]2CC=C(C(=O)O)[C@H](c3ccc(C(C)(C)C)cc3)N2S(=O)(=O)c2ccc(C)cc2)cc1 | 12.5%
NC(=S)Nc1cccc2cc3ccccc3cc12 | 35.8%
O=C(O)c1cccc(N2C(=O)c3cc([N+](=O)[O-])cc4cc([N+](=O)[O-])cc(c34)C2=O)c1 | 19.5%
COc1ccc(/C=C2\C(=O)ON=C2c2ccccc2)cc1OC | 38.4%
Cc1cc(C)n2nc3nc4c(cc3c2n1)CCCC4 | 33.9%
O=C(c1ccccc1NS(=O)(=O)c1ccc([N+](=O)[O-])cc1[N+](=O)[O-])N1O[C@@H]2C=C[C@H]1C2 | 45.7%
Cc1ccc2c(c1)c1c(n2C)C(C(N)=O)CCC1 (stereo not given) | 0.61%
